Assay results taken from the supplement of paper PMC4604168 (melanoma cell lines).
This is one part of the list. Most values come without repeats; read them as rough.

tested on: MEL-HO; experiment: cell count relative to DMSO control; melanoma cells; higher = more viable cells; details: library dose: low library concentration; 72 h
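Note: cell number obtained by counting DAPI-stained nuclei in high-throughput microscope images with image analysis software, screen run in 1,536-well plates.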

Row | SMILES | cell count [%]
1 | Cc1cc(Nc2cc(N3CCN(C)CC3)nc(/C=C/c3ccccc3)n2)n[nH]1 + COc1ccc(Cl)c(Nc2nc3ccccc3nc2NS(=O)(=O)c2cccc(NC(=O)C(C)(C)N)c2)c1 [XL147] (first compound 0.04 µM, partner dose 0.8 µM) | 91.8
2 | COc1ccc(C2=N[C@@H](c3ccc(Cl)cc3)[C@@H](c3ccc(Cl)cc3)N2C(=O)N2CCNC(=O)C2)c(OC(C)C)c1 [Nutlin-3] + NC1(c2ccc(-c3nc4ccn5c(=O)[nH]nc5c4cc3-c3ccccc3)cc2)CCC1 [MK2206] (first compound 0.1 µM, partner dose 0.4 µM) | 96.5
3 | CC(C)C[C@H](NC(=O)[C@H](Cc1ccccc1)NC(=O)c1cnccn1)B(O)O [Bortezomib] + CS(=O)(=O)CCNCc1ccc(-c2ccc3ncnc(Nc4ccc(OCc5cccc(F)c5)c(Cl)c4)c3c2)o1 [lapatinib] (first compound 0.001 µM, partner dose 0.8 µM) | 90.4
4 | CC(C)C[C@H](NC(=O)[C@H](Cc1ccccc1)NC(=O)c1cnccn1)B(O)O [Bortezomib] + C[C@]1(c2nc3c(C(N)=O)cccc3[nH]2)CCCN1 [Veliparib] (first compound 0.001 µM, partner dose 1.4 µM) | 94
5 | Cc1cc(Nc2cc(N3CCN(C)CC3)nc(/C=C/c3ccccc3)n2)n[nH]1 + COCC[n+]1c2c(n(Cc3cnccn3)c1C)C(=O)c1ccccc1C2=O [YM155] (first compound 0.04 µM, partner dose 0.0004 µM) | 92.6
6 | Cc1cn(-c2cc(NC(=O)c3ccc(C)c(Nc4nccc(-c5cccnc5)n4)c3)cc(C(F)(F)F)c2)cn1 [nilotinib] + CC(C)C[C@H](NC(=O)[C@H](Cc1ccccc1)NC(=O)c1cnccn1)B(O)O [Bortezomib] (first compound 0.2 µM, partner dose 0.001 µM) | 92.6
7 | Cn1c(=O)n(-c2ccc(C(C)(C)C#N)cc2)c2c3cc(-c4cnc5ccccc5c4)ccc3ncc21 + CN1CCN(c2ccc3nc(-c4c(N)c5c(F)cccc5[nH]c4=O)[nH]c3c2)CC1 [Dovitinib] (first compound 0.004 µM, partner dose 0.1 µM) | 89
8 | CC(C)C[C@H](NC(=O)[C@H](Cc1ccccc1)NC(=O)c1cnccn1)B(O)O [Bortezomib] + CCCS(=O)(=O)Nc1ccc(F)c(C(=O)c2c[nH]c3ncc(Cl)cc23)c1F [PLX4720] (first compound 0.001 µM, partner dose 0.08 µM) | 87
9 | Cc1cn(-c2cc(NC(=O)c3ccc(C)c(Nc4nccc(-c5cccnc5)n4)c3)cc(C(F)(F)F)c2)cn1 [nilotinib] + OCc1c[nH]c2ccccc12 [Indole-3-carbinol] (first compound 0.2 µM, partner dose 0.8 µM) | 94.5
10 | CC(C)C[C@H](NC(=O)[C@H](Cc1ccccc1)NC(=O)c1cnccn1)B(O)O [Bortezomib] + Cn1c(Nc2ccc(C(F)(F)F)cc2)nc2cc(Oc3ccnc(-c4ncc(C(F)(F)F)[nH]4)c3)ccc21 [CHIR265] (first compound 0.001 µM, partner dose 0.08 µM) | 71
11 | Cc1cc(Nc2cc(N3CCN(C)CC3)nc(/C=C/c3ccccc3)n2)n[nH]1 + Cn1nnc2c(C(N)=O)ncn2c1=O [temozolomide] (first compound 0.04 µM, partner dose 2 µM) | 92.4
12 | Cc1cn(-c2cc(NC(=O)c3ccc(C)c(Nc4nccc(-c5cccnc5)n4)c3)cc(C(F)(F)F)c2)cn1 [nilotinib] + Cn1nnc2c(C(N)=O)ncn2c1=O [temozolomide] (first compound 0.2 µM, partner dose 2 µM) | 88.4
